Experimental data: patent US20240067738A1 (ELANCO US, published 2024)

Assays:
[1] = molecular target: T1, Canine IL4_C-His6 (processed) (canine, UniProt O77762 25-131); experiment: BLI (Octet), IL4R-ECD_C-HuFc_His6 on anti-human Fc tips, ligand 50 µg/mL first
T1 sequence: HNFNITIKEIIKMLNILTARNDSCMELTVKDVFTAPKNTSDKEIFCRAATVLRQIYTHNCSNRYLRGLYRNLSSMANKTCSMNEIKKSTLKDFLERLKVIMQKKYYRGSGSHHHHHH
Experimental: (§1) The opposite binding assay was also performed. The association between canine IL4_C-His6 (SEQ ID NO: 127; 50 μg/mL) or canine IL13_C-His6 (SEQ ID NO: 157; 50 μg/mL) and canine IL4R-ECD_C-HuFc_His6 captured on anti-human Fc-bound sensor tips was monitored for 600 seconds. The complex-bound tips were washed briefly and then exposed to Clone B antibody (50 μg/mL) or Clone I antibody (50 μg/mL) and monitored for 600 seconds. Following IL4 and IL13 binding to IL4R (FIG. 3C and FIG. 3D, respectively), further association with Clone B or Clone I was observed.

[2] = molecular target: T2, Canine IL13_C-His6 (processed) (canine, UniProt Q9N0W9 19-131); experiment: as above
T2 sequence: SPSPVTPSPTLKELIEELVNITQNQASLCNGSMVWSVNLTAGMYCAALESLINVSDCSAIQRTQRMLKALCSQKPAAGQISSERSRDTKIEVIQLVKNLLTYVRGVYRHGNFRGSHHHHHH
Experimental: as §1

binding result [1]: binds | binding result [2]: binds
B1: Canine IL4R-ECD_C-HuFc_His6 (processed) (Fc fusion)
chain: GSVKVLHEPSCFSDYISTSVCQWKMDHPTNCSAELRLSYQLDFMGSENHTCVPENREDSVCVCSMPIDDAVEADVYQLDLWAGQQLLWSGSFQPSKHVKPRTPGNLTVHPNISHTWLLMWTNPYPTENHLHSELTYMVNVSNDNDPEDFKVYNVTYMGPTLRLAASTLKSGASYSARVRAWAQTYNSTWSDWSPSTTWLNYYEPGSENLYFQ[letters of human IgG1 Fc and a few adjoining residues omitted]
notes: Whole construct (ECD, linker, human Fc, His6) is one entry
